# Reference: the supplement of paper PMC8728848
# The list shows a part of the results.
# B1: Banana lectin (Musa acuminata) (protein)
# chain: MNGAIKVGAHGGNGGSAFDMGPAYRIISVKIFSGDVVDGVDVTFTYYGKTETRHYGGSGGTPHEIVLQEGEYLVGMAGEVANYHGAVVLGKLGFSTNKKAYGPFGNTGGTPFSLPIAAGKISGFFGRGGKFLDAIGVYLEPLEHHHHHH
# What was measured:
# Experiment in all cases: glycan array binding signal (z-score within array); higher = stronger binding
# Conditions in all cases: glycan notation: IUPAC condensed, linker removed; mutation: W10H
# [1] = molecular target: Fuc(a1-2)[GalNAc(b1-3)]Gal
# Outline: (§1)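 Negative Z-scores can be read as non-binding. The Z-score is calculated within each array and then averaged across arrays of one protein sequence at different concentrations or buffers and across linkers. Arrays, 3228 in all, were curated from the Consortium for Functional Glycomics database and kept only where the protein sequence was available.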
# Fuc(a1-3)GlcNAc = molecular target: Fuc(a1-3)GlcNAc
# Outline: as §1
# [2] = molecular target: Fuc(a1-3)[Gal(b1-4)]Glc6S
# Outline: as §1
# [3] = molecular target: Fuc(a1-3)[Gal(b1-4)]GlcNAc
# Outline: as §1
# [4] = molecular target: Fuc(a1-3)[Gal(b1-4)]GlcNAc(b1-2)Man
# Outline: as §1
# [5] = molecular target: Fuc(a1-3)[Gal(b1-4)]GlcNAc(b1-2)Man(a1-3)[Fuc(a1-3)[Gal(b1-4)]GlcNAc(b1-2)Man(a1-6)]Man(b1-4)GlcNAc(b1-4)GlcNAc
# Outline: as §1
# [6] = molecular target: Fuc(a1-3)[Gal(b1-4)]GlcNAc(b1-2)Man(a1-3)[Fuc(a1-3)[Gal(b1-4)]GlcNAc(b1-2)Man(a1-6)]Man(b1-4)GlcNAc(b1-4)[Fuc(a1-6)]GlcNAc
# Outline: as §1
# [7] = molecular target: Fuc(a1-3)[Gal(b1-4)]GlcNAc(b1-3)Gal(b1-3)[Fuc(a1-4)]GlcNAc
# Outline: as §1
# [8] = molecular target: Fuc(a1-3)[Gal(b1-4)]GlcNAc(b1-3)Gal(b1-4)[Fuc(a1-3)]GlcNAc
# Outline: as §1
# [9] = molecular target: Fuc(a1-3)[Gal(b1-4)]GlcNAc(b1-3)Gal(b1-4)[Fuc(a1-3)]GlcNAc(b1-3)Gal(b1-4)[Fuc(a1-3)]GlcNAc
# Outline: as §1
# [10] = molecular target: Fuc(a1-3)[Gal(b1-4)]GlcNAc(b1-3)GalNAc
# Outline: as §1
# [11] = molecular target: Fuc(a1-3)[Gal(b1-4)]GlcNAc(b1-6)GalNAc
# Outline: as §1
# [12] = molecular target: Fuc(a1-3)[Gal(b1-4)]GlcNAc(b1-6)[Gal(b1-3)GlcNAc(b1-3)]Gal(b1-4)Glc
# Outline: as §1
# [13] = molecular target: Fuc(a1-3)[Gal(b1-4)]GlcNAc6S
# Outline: as §1
# [14] = molecular target: Fuc(a1-3)[Gal3S(b1-4)]Glc
# Outline: as §1
# [15] = molecular target: Fuc(a1-3)[Gal3S(b1-4)]GlcNAc
# Outline: as §1
# [16] = molecular target: Fuc(a1-3)[Gal3S(b1-4)]GlcNAc6S
# Outline: as §1
# [17] = molecular target: Fuc(a1-3)[GalNAc(b1-4)]GlcNAc
# Outline: as §1
# [18] = molecular target: Fuc(a1-3)[GalNAc(b1-4)]GlcNAc6S
# Outline: as §1
# Fuc(a1-4)GlcNAc = molecular target: Fuc(a1-4)GlcNAc
# Outline: as §1
# Fuc(b1-3)GlcNAc = molecular target: Fuc(b1-3)GlcNAc
# Outline: as §1
# Gal(a1-2)Gal = molecular target: Gal(a1-2)Gal
# Outline: as §1
# Gal(a1-3)Gal = molecular target: Gal(a1-3)Gal
# Outline: as §1
# Gal(a1-3)Gal(b1-3)GlcNAc = molecular target: Gal(a1-3)Gal(b1-3)GlcNAc
# Outline: as §1
# [19] = molecular target: Gal(a1-3)Gal(b1-3)GlcNAc(b1-2)Man
# Outline: as §1
# [20] = molecular target: Gal(a1-3)Gal(b1-3)GlcNAc(b1-2)Man(a1-3)[Gal(a1-3)Gal(b1-3)GlcNAc(b1-2)Man(a1-6)]Man(b1-4)GlcNAc(b1-4)GlcNAc
# Outline: as §1
# [21] = molecular target: Gal(a1-3)Gal(b1-3)GlcNAc(b1-3)GalNAc
# Outline: as §1
# [22] = molecular target: Gal(a1-3)Gal(b1-3)GlcNAc(b1-6)GalNAc
# Outline: as §1
# [23] = molecular target: Gal(a1-3)Gal(b1-3)[Fuc(a1-4)]GlcNAc(b1-2)Man(a1-3)[Gal(a1-3)Gal(b1-3)[Fuc(a1-4)]GlcNAc(b1-2)Man(a1-6)]Man(b1-4)GlcNAc(b1-4)GlcNAc
# Outline: as §1
# Gal(a1-3)Gal(b1-4)Glc = molecular target: Gal(a1-3)Gal(b1-4)Glc
# Outline: as §1
# Gal(a1-3)Gal(b1-4)GlcNAc = molecular target: Gal(a1-3)Gal(b1-4)GlcNAc
# Outline: as §1
# [24] = molecular target: Gal(a1-3)Gal(b1-4)GlcNAc(b1-2)Man
# Outline: as §1
# [25] = molecular target: Gal(a1-3)Gal(b1-4)GlcNAc(b1-2)Man(a1-3)[Gal(a1-3)Gal(b1-4)GlcNAc(b1-2)Man(a1-6)]Man(b1-4)GlcNAc(b1-4)GlcNAc
# Outline: as §1
# [26] = molecular target: Gal(a1-3)Gal(b1-4)GlcNAc(b1-3)GalNAc
# Outline: as §1
# [27] = molecular target: Gal(a1-3)Gal(b1-4)GlcNAc(b1-6)GalNAc
# Outline: as §1
# [28] = molecular target: Gal(a1-3)Gal(b1-4)[Fuc(a1-3)]GlcNAc
# Outline: as §1
# [29] = molecular target: Gal(a1-3)Gal(b1-4)[Fuc(a1-3)]GlcNAc(b1-2)Man(a1-3)[Gal(a1-3)Gal(b1-4)[Fuc(a1-3)]GlcNAc(b1-2)Man(a1-6)]Man(b1-4)GlcNAc(b1-4)GlcNAc
# Outline: as §1
# Gal(a1-3)GalNAc = molecular target: Gal(a1-3)GalNAc
# Outline: as §1
# [30] = molecular target: Gal(a1-3)[Gal(a1-4)]Gal(b1-4)GlcNAc
# Outline: as §1
# [31] = molecular target: Gal(a1-4)Gal(b1-3)GlcNAc(b1-2)Man(a1-3)[Gal(a1-4)Gal(b1-3)GlcNAc(b1-2)Man(a1-6)]Man(b1-4)GlcNAc(b1-4)GlcNAc
# Outline: as §1
# Gal(a1-4)Gal(b1-4)Glc = molecular target: Gal(a1-4)Gal(b1-4)Glc
# Outline: as §1
# Gal(a1-4)Gal(b1-4)GlcNAc = molecular target: Gal(a1-4)Gal(b1-4)GlcNAc
# Outline: as §1
# [32] = molecular target: Gal(a1-4)Gal(b1-4)GlcNAc(b1-2)Man(a1-3)[Gal(a1-4)Gal(b1-4)GlcNAc(b1-2)Man(a1-6)]Man(b1-4)GlcNAc(b1-4)GlcNAc
# Outline: as §1
# [33] = molecular target: Gal(a1-4)Gal(b1-4)GlcNAc(b1-3)Gal(b1-4)Glc
# Outline: as §1
# Gal(a1-4)GlcNAc = molecular target: Gal(a1-4)GlcNAc
# Outline: as §1
binder,measurement,setting,value
B1,glycan array binding signal (z-score),[1],-0.171
same,glycan array binding signal (z-score),Fuc(a1-3)GlcNAc,-0.202
same,glycan array binding signal (z-score),[2],-0.159
same,glycan array binding signal (z-score),[3],-0.185
same,glycan array binding signal (z-score),[4],-0.195
same,glycan array binding signal (z-score),[5],-0.151
same,glycan array binding signal (z-score),[6],-0.148
same,glycan array binding signal (z-score),[7],-0.201
same,glycan array binding signal (z-score),[8],-0.146
same,glycan array binding signal (z-score),[9],-0.152
same,glycan array binding signal (z-score),[10],-0.16
same,glycan array binding signal (z-score),[11],-0.189
same,glycan array binding signal (z-score),[12],-0.184
same,glycan array binding signal (z-score),[13],-0.16
same,glycan array binding signal (z-score),[14],-0.129
same,glycan array binding signal (z-score),[15],-0.21
same,glycan array binding signal (z-score),[16],-0.127
same,glycan array binding signal (z-score),[17],-0.131
same,glycan array binding signal (z-score),[18],-0.194
same,glycan array binding signal (z-score),Fuc(a1-4)GlcNAc,-0.187
same,glycan array binding signal (z-score),Fuc(b1-3)GlcNAc,-0.188
same,glycan array binding signal (z-score),Gal(a1-2)Gal,-0.177
same,glycan array binding signal (z-score),Gal(a1-3)Gal,-0.173
same,glycan array binding signal (z-score),Gal(a1-3)Gal(b1-3)GlcNAc,-0.171
same,glycan array binding signal (z-score),[19],-0.18
same,glycan array binding signal (z-score),[20],-0.183
same,glycan array binding signal (z-score),[21],-0.176
same,glycan array binding signal (z-score),[22],-0.174
same,glycan array binding signal (z-score),[23],0.199
same,glycan array binding signal (z-score),Gal(a1-3)Gal(b1-4)Glc,-0.151
same,glycan array binding signal (z-score),Gal(a1-3)Gal(b1-4)GlcNAc,-0.18
same,glycan array binding signal (z-score),[24],-0.18
same,glycan array binding signal (z-score),[25],-0.121
same,glycan array binding signal (z-score),[26],-0.174
same,glycan array binding signal (z-score),[27],-0.186
same,glycan array binding signal (z-score),[28],-0.185
same,glycan array binding signal (z-score),[29],-0.139
same,glycan array binding signal (z-score),Gal(a1-3)GalNAc,-0.179
same,glycan array binding signal (z-score),[30],-0.164
same,glycan array binding signal (z-score),[31],0.214
same,glycan array binding signal (z-score),Gal(a1-4)Gal(b1-4)Glc,-0.169
same,glycan array binding signal (z-score),Gal(a1-4)Gal(b1-4)GlcNAc,-0.15
same,glycan array binding signal (z-score),[32],-0.165
same,glycan array binding signal (z-score),[33],-0.141
same,glycan array binding signal (z-score),Gal(a1-4)GlcNAc,-0.174
